Source: PubChem BioAssay (NCATS)
Values joined by “and” are separate entries in the source; they are usually repeats but may differ in a detail not shown here. Identical values can stand only once. The list shows a part of the results. The main result of the screen is listed elsewhere. These columns were measured beside it and carry no call. For part of these data: Most of these compounds were active or inconclusive in the main read-out, so they are no random draw. For part of these data: The note in brackets gives the kind of curve behind each potency; many fits are weak.

Experiments:
[1] = qHTS Assay for Lipid Storage Modulators (AID 1519); conditions: Drosophila S3 cells, BODIPY lipid droplet/cell ratio, laser cytometry, cells loaded with oleic acid
Procedure, shortened: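 Cells seeded at 5,000 per well were treated with compounds over a concentration series and loaded with oleic acid (400 uM, as added). Lipid droplet fluorescence (488 nm excitation, 500-530 nm channel) was read by laser-scanning cytometry and normalized to 20 uM Triacsin C.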

[2] = qHTS Assay for Modulators of Human Peripheral Myelin Protein 22 (PMP22) Expression/Activity (AID 1967); conditions: Cell-based PMP22 reporter, dual-color luciferase ratio
Procedure, shortened: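 Quantitative HTS in a mouse Schwann cell line expressing dual click beetle luciferases: Pmp22 promoter (green) and control EF-alpha promoter (red). After 24h treatment, corrected green/red signal ratio gave %Activity relative to untreated cells.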

[3] = qHTS Validation Assay to Find Inhibitors of Chronic Active B-Cell Receptor Signaling (AID 485345); conditions: ABC-DLBCL cells, chronic BCR signaling reporter
Procedure, shortened: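 Read-out: ratio of filter-corrected green (IkappaBalpha fusion) to red (native) luciferase signal in doxycycline-induced TMD8 cells after 4 h at 37C. Titration spanned 46 uM–3 nM; Data were normalised to basal cells and 10 uM MG-132 wells.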

[4] = qHTS assay for small molecule antagonists of peroxisome proliferator-activated receptor delta signaling (AID 588535); conditions: HEK293T PPARd-UAS-bla, beta-lactamase FRET ratio, 18 h; 460 nm channel;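 note: cells co-treated with a PPAR-delta agonist as stimulator during compound exposure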
Procedure, shortened: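 HEK293T PPAR-delta-UAS-bla cells, 4000/well, 2% charcoal/dextran FBS; 5 h 37 C; cpd titration; 18 h 37 C; CCF4 2 h RT; FI 460/530 nm; Hill fit → IC50, efficacy.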

[5] = qHTS assay for small molecule antagonists of vitamin D receptor signaling (AID 588541); conditions: HEK293T VDR-UAS-bla, beta-lactamase ratio, antagonist mode; measured here: W460 blue channel (cell viability)
[6] = qHTS assay for small molecule antagonists of retinoid X receptor alpha signaling (AID 588546); conditions: HEK293T RXRa-UAS-bla, beta-lactamase ratio, antagonist mode; measured here: W530 green channel, cytotoxicity proxy;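 note: cells stimulated with 9-cis-retinoic acid as agonist; % is set by controls: 0 for no effect and ±100 for the full control effect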
Procedure, shortened: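 Beta-lactamase reporter inhibition, read as CCF4 fluorescence ratio (ex 405, em 460/530 nm) after 2 h at RT. HEK293T UAS-bla cells, 2500/well, were stimulated with 9-cis-RA at 500 or 100 nM final alongside test compound for 18 h at 37 C.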

[7] = S16 Schwann cell PMP22 intronic element beta-lactamase assay (AID 624044); conditions: S16 rat Schwann cells, PMP22 element beta-lactamase FRET, 24 h; note: nearly all actives have a fitted effect of over 15% in size
Procedure, shortened: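 Rat S16 Schwann cells with beta-Lac driven by a PMP22 intronic element, compound-treated 24 h at 37 °C. LiveBLAzer FRET B/G read: 460 nm normalized to potassium clavulanate vs DMSO; 535 nm FRET as viability; concentration-effect curves classified.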

[8] = A High-Content qHTS Against Drug Library for the Identification of Small Molecules that Inhibit DYT1 Early Onset Primary Dystonia-Associated Cell Pathology (AID 1645839); conditions: HEK293 Flp-In EGFP-delE TorsinA, punctate imaging, 48 h; measured here: cell count cytotoxicity
Procedure, shortened: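 In this high-content image screen, delE TorsinA mislocalization in inducible Flp-In 293 cells is scored as %pathology, with cell count serving as the counterscreen. Compound exposure lasts 48 h under tetracycline induction in reduced-serum medium.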

[9] = qHTS drug screen for cell cycle checkpoint inhibitors in PARPi-resistant BRCA-mutant ovarian cancer cell lines. (AID 1963452); conditions: PEO1/OlaR viability, CellTiter-Glo luminescence, 96 h
Procedure, shortened: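 PEO1, PEO4 and PEO1/OlaR ovarian cancer cells, 600 per well, exposed 96 h at 37C to a dilution series. Viability read by CellTiter-Glo luminescence, normalized to DMSO and empty wells; activity summarized as Z-AUC.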

[10] = qHTS for identification of novel therapeutic agents for treatment of microphthalmiaassociated transcription factor (MiT) renal cell carcinoma (RCC) (AID 1963991); conditions: CellTiter-Glo, 48 h; for z-score: stronger effect = lower value
Procedure, shortened: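 Three TFE3-fusion RCC cell lines (UOK109, UOK124, UOK145), 500 cells/well, were exposed to the 1912-compound MIPE 4.0 library for 48 hours at 37 C. Viability was read by CellTiter-Glo luminescence, normalised to DMSO (100%) and empty wells (0%), with 11-concentration curve fits.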

[11] = biological target: Catechol O-methyltransferase (Homo sapiens) (UniProt P21964); assay: Confirmatory Screen for Target Class Profiling of Small Molecule Inhibitors of Methyltransferases (AID 1745852); conditions: MTase-Glo luminescence, SAH detection, recombinant enzyme; measured here: COMT inhibition potency;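 note: inhibitor potency for blocking SAH production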
[12] = biological target: Nicotinamide N-methyltransferase (Homo sapiens) (UniProt P40261); assay: as above; conditions: MTase-Glo luminescence, SAH detection, recombinant enzyme; measured here: NNMT inhibition potency
[13] = qHTS Validation Assay for Iinhibitors of HIV-1 Budding by Blocking the Interaction of PTAP/TSG101 (AID 485342); conditions: TSG101-PTAP binding, fluorescence polarization, 4-point titration; measured here: FITC channel readout
Procedure, shortened: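 Fluorescence anisotropy measured PTAP-Tsg101 interaction. Final concentrations were 10 uM protein domain and 50 nM labeled peptide, equilibrated 20 min at room temperature.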

[14] = Nrf2 qHTS screen for inhibitors: Validation (AID 493153); conditions: A549 ARE-Fluc reporter, 18-24 h; AC50: CellTiter-Fluor fluorescence read, measured here: cytotoxicity CellTiter-Fluor AC50; viability change: measured here: cytotoxicity max response
Procedure, shortened: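 Luminescence from an ARE-firefly luciferase reporter in A549 cells gives Nrf2 inhibition; an earlier CellTiter-Fluor fluorescent read flags cytotoxicity. Cells in 5% FBS OPTI-MEM received compound dilution series for 18-24 h at 37°C.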

[15] = biological target: Histamine N-methyltransferase (Homo sapiens) (UniProt P50135); assay: Confirmatory Screen for Target Class Profiling of Small Molecule Inhibitors of Methyltransferases (AID 1745852); conditions: MTase-Glo luminescence, SAH detection, recombinant enzyme; measured here: HNMT inhibition potency;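 note: inhibitor potency for blocking SAH production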
[16] = biological target: Phenylethanolamine N-methyltransferase (Homo sapiens) (UniProt P11086); assay: as above; conditions: MTase-Glo luminescence, SAH detection, recombinant enzyme; measured here: PNMT inhibition potency
[17] = measured here: cell count channel max response
[18] = measured here: cell number channel AC50
[19] = measured here: lipid (BODIPY) channel AC50
[20] = measured here: lipid channel max response
[21] = measured here: green reporter channel AC50, mouse Pmp22 promoter in mouse Schwann cells
[22] = measured here: red reporter channel AC50, EF-alpha promoter control reporter in MSC80 mouse Schwann cells
[23] = measured here: CBG/CBR ratio read-out
[24] = measured here: CBR control luciferase (viability counter)
[25] = measured here: 530 nm viability channel
[26] = measured here: PEO1 parental viability
[27] = TFE3-RCC UOK109 viability, measured here: UOK109 Z-AUC
[28] = TFE3-RCC viability, measured here: UOK124 Z-AUC
[29] = TFE3-RCC viability, measured here: UOK124 cell viability
[30] = TFE3-RCC viability, measured here: UOK145 Z-AUC
[31] = TFE3-RCC viability, measured here: UOK145 cell viability
Tags give direction and shape of the fitted curve.

Chain of UniProt P21964 (P21964 whole entry, looked up): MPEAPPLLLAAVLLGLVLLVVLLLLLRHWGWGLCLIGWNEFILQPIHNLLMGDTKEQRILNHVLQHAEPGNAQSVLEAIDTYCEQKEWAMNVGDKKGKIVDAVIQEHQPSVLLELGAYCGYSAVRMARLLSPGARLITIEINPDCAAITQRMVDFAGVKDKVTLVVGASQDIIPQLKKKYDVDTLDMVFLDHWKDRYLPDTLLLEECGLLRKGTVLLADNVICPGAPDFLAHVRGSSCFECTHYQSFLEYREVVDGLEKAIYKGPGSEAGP
Chain of UniProt P40261 (P40261 whole entry, looked up): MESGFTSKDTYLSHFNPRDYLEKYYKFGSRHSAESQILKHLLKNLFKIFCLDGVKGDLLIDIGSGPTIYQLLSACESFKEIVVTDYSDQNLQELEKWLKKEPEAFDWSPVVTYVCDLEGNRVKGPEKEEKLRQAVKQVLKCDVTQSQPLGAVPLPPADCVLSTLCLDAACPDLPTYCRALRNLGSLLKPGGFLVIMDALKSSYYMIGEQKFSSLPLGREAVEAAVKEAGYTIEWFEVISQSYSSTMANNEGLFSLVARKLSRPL
Chain of UniProt P11086 (P11086 whole entry, looked up): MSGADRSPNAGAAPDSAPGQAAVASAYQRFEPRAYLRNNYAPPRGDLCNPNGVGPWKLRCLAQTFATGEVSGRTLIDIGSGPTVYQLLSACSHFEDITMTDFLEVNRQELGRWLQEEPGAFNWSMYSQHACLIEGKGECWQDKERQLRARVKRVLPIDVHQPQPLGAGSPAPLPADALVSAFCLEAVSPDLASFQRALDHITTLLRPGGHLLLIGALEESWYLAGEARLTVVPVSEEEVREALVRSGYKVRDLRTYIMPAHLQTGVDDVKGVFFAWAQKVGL
Chain of UniProt P50135 (P50135 whole entry, looked up): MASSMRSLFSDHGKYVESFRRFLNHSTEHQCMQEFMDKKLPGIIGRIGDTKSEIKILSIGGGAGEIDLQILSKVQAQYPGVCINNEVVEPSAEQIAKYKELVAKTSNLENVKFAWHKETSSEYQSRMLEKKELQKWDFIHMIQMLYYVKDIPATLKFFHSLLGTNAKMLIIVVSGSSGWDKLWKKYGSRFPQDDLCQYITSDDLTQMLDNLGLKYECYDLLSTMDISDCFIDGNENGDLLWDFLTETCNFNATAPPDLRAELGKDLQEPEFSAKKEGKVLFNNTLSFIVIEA

CCN(CC)C(=S)SSC(=S)N(CC)CC
max response [1, 17]: -21.4% and 15.2%
AC50 [1, 18]: 10 µM [falling, partial curve, poor fit]
AC50 [1, 19]: 39.8 µM [falling, single point] and 10 µM [falling, partial curve, poor fit]
max response [1, 20]: -76.8% and 16.5%
AC50 [2, 21]: 1.69 µM [falling, full curve]
AC50 [2, 22]: 12 µM [falling, partial curve, poor fit]
AC50 [3, 23]: 16.4 µM [falling, partial curve]
AC50 [3, 24]: 5.17 µM [rising, full curve, poor fit]
max response [4]: 16.6%
AC50 [5]: 50.1 µM [falling, single point]
max response [6]: -37.2%
AC50 ([7]; measured here: 460 nm blue channel): 28.2 µM [falling, partial curve, poor fit]
AC50 [7, 25]: 28.2 µM [rising, single point]
AC50 [8]: 3.16 µM [falling, partial curve, poor fit]
AC50 [9, 26]: 19.5 µM [falling, single point]
AC50 ([9]; measured here: PEO4 viability): 27.5 µM [falling, single point]
z-score [10, 27]: 0.151
z-score [10, 28]: -2.67
AC50 [10, 29]: 0.00935 µM [falling, full curve, poor fit]
z-score [10, 30]: -0.39
AC50 [10, 31]: 5.9 µM [falling, partial curve, poor fit]

N#C/C(=C\c1ccc(O)c(O)c1)C(=O)NCCc1ccccc1
max response [1, 17]: -60.1%
AC50 [1, 18]: 39.8 µM [falling, partial curve, poor fit]
AC50 [1, 19]: 31.6 µM [falling, partial curve, poor fit]
max response [1, 20]: -64.7%
AC50 [2, 22]: 21.3 µM [falling, full curve]
AC50 [3, 23]: 11.6 µM [falling, partial curve]
AC50 [3, 24]: 18.4 µM [falling, single point]
IC50 [11]: 1.93 µM [rising, full curve]
IC50 [12]: 21.7 µM [falling, partial curve]

OCCN(CCO)c1nc(N2CCCCC2)c2nc(N(CCO)CCO)nc(N3CCCCC3)c2n1
max response [1, 17]: 61.7% and 16.7% and 62.4%
AC50 [1, 18]: 35.5 µM [rising, single point] and 14.1 µM [falling, partial curve, poor fit]
AC50 [1, 19]: 35.5 µM [rising, partial curve, poor fit] and 31.6 µM [rising, single point] and 14.1 µM [falling, partial curve, poor fit]
max response [1, 20]: 78.4% and 39.1% and 65.2%
AC50 [2, 21]: 33.8 µM [falling, full curve]
AC50 [2, 22]: 42.6 µM [falling, full curve]
AC50 [13]: 31.6 µM [falling, partial curve]
AC50 [3, 23]: 0.366 µM [falling, full curve]
AC50 [3, 24]: 0.0103 µM [rising, full curve]
AC50 [7, 25]: 14.1 µM [rising, partial curve]
AC50 [8]: 5.62 µM [falling, full curve, poor fit]
z-score [10, 27]: 1.11
z-score [10, 28]: 0.282
AC50 [10, 29]: 37.2 µM [falling, single point]
z-score [10, 30]: 0.12

C[C@H](Cc1ccc(O)c(O)c1)[C@@H](C)Cc1ccc(O)c(O)c1
max response [1, 17]: -82.4%
AC50 [1, 18]: 35.5 µM [falling, partial curve, poor fit]
AC50 [1, 19]: 35.5 µM [falling, partial curve, poor fit]
max response [1, 20]: -83.3%
AC50 [2, 21]: 37.9 µM [falling, partial curve]
AC50 [2, 22]: 84.9 µM [falling, single point]
AC50 [3, 23]: 20.6 µM [falling, partial curve]
AC50 [3, 24]: 29.1 µM [falling, single point]
viability change [14]: -6.93%
IC50 [11]: 1.09 µM [rising, full curve]
IC50 [15]: 34.3 µM [falling, single point]
IC50 [12]: 27.3 µM [falling, partial curve]
IC50 [16]: 24.3 µM [falling, partial curve]
AC50 [9, 26]: 15.5 µM [falling, partial curve, poor fit]
AC50 ([9]; measured here: PEO4 viability): 24.5 µM [falling, single point]
z-score [10, 27]: 0.691
z-score [10, 28]: 0.801
AC50 [10, 29]: 23.5 µM [falling, single point]
z-score [10, 30]: 0.537

Cn1ccc2cc3c(cc21)CCN3C(=O)Nc1cccnc1
max response [1, 17]: 93% and 46%
AC50 [1, 18]: 2 µM [rising, full curve, poor fit]
AC50 [1, 19]: 4.47 µM [rising, partial curve, poor fit]
max response [1, 20]: 130% and 48.9%
AC50 [3, 23]: 9.2 µM [falling, partial curve]
AC50 [3, 24]: 5.8 µM [rising, partial curve]
AC50 [8]: 10 µM [falling, single point]
z-score [10, 27]: 0.604
z-score [10, 28]: 0.795
z-score [10, 30]: 0.621
AC50 [10, 31]: 26.4 µM [falling, single point]
